Test results published in PubChem BioAssay AID1508623 (National Center for Advancing Translational Sciences (NCATS), 2021).
Hit rate of the full screen: of about 48,000 compounds, about 450 (0.94%) were called active. Not shown: some 19% with an inconclusive outcome. Calls follow the shape of the dose curve; as a rule, active = well fitted inhibition curve with a large enough effect; inconclusive = small, poorly fitted or top-dose-only effect; inactive = no such curve, though single readings can be large or run the other way. Some of the results follow.

Assay: Primary qHTS for Identification of Small Molecule Inhibitors of Huntingtin Promoter Activity; also: nearly all actives have a fitted effect of over 50% in size
Conditions: HEK293 HTT promoter firefly luciferase reporter (activity 0% = vehicle and -100% = no light), 24 h; series mostly up to 57.5 µM; activity change, negative = inhibition: at the top concentration
Method in brief: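 HEK293 Fluc reporter, 2,500 cells/well, 24 h pre-culture; cpds up to 57.5 uM final, 24 h 37 degrees C; Dual-Glo, 10 min RT; normalized vehicle = 0%, zero RLU = -100%.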

SMILES | activity change, negative = inhibition
CCOc1ccccc1NC(=O)CN1C=NS(=O)(=O)c2ccccc21 | inactive: -16.9%
COc1cccc2cc(-c3nc(-c4ccc(C)cc4)c(C)s3)c(=O)oc12 | inactive: -4.84%
Cc1ccc(NC(=O)CCNS(=O)(=O)c2ccc3c(c2)CCCC(=O)N3)cc1 | inactive: -8.38%
CC1=C(C(=O)Nc2cccc(C(F)(F)F)c2)C(c2ccccc2)n2ncnc2N1 (stereo unspecified) | inactive: -9.94%
CCc1cccc(C)c1NC(=O)CCn1nc(C)c2c(C)n(-c3ccccc3)nc2c1=O | inactive: -35.8%
CCOc1ccccc1O[C@H](c1ccccc1)[C@H]1CNCCO1 | inactive: -3.8%
COc1cccc(N2CC(NC(=O)C3CC3)CC2=O)c1 (stereo unspecified) | inactive: -4.02%
COc1ccc(NC(=O)Cn2c(=O)n(-c3ccc(C)c(C)c3)c(=O)c3c(C)c(C)sc32)cc1 | inactive: -20.6%
Cc1ccc(CCNC(=O)c2ccc(NC(=O)N3CCSc4ccccc43)cc2)cc1 | inactive: -7.39%
CCOc1ccc2c(c1)c(=O)c(C(=O)c1ccc(CC)cc1)cn2CC(=O)Nc1ccccc1C | inactive: -8.75%
Cc1ccc(C)c(N2CCN(c3nc4c(S(=O)(=O)c5ccccc5)nnn4c4ccc(Cl)cc34)CC2)c1 | inactive: -2.04%
CCOC(=O)c1c(S(=O)(=O)N2CCC(C(=O)Nc3cccc(C)n3)CC2)c(C)n(C)c1C | inactive: -7.97%
CCC(C)NC(=O)Cn1c(=O)ccc2cc(S(=O)(=O)N3CCCC3)ccc21 (stereo unspecified) | inactive: 12.8%
CCCN(C(=O)c1cc2c(=O)oc3ccccc3c2s1)c1ccccc1C | inactive: -6.74%
Cc1ccc(NC(=O)Cn2nnc(C(=O)NCCc3ccccc3)c2N)cc1Cl | inactive: 4.4%
COCC(=O)N1c2nc(-c3ccco3)nn2C2(CCCCC2)[C@@H]2CCCC[C@@H]21 | inactive: -14.5%
CCc1ccc2c(c1)c(=O)c(S(=O)(=O)c1ccccc1)cn2CC(=O)Nc1ccc(OC)cc1 | inactive: -17.3%
O=C(CSc1nc2ccsc2c(=O)n1Cc1ccccc1Cl)NCc1ccc(Cl)cc1 | inactive: -4.15%
O=C(CSc1nc2ccccc2n1Cc1c(F)cccc1Cl)N1CCN(c2ccc(F)cc2)CC1 | inactive: -0.869%
CCOc1cc(CNC(=O)c2ccc3nc(CCc4ccccc4)oc3c2)ccc1OC | inactive: -12.3%
COc1ccc(NC(=O)CN2C(=O)C3(SCC(=O)N3c3cccc(OC)c3)c3ccccc32)cc1 (stereo unspecified) | inactive: 0.0444%
Cc1ccc(S(=O)(=O)NCCc2csc3nc(-c4ccccc4C)nn23)cc1 | inactive: -19.7%
O=C(Nc1nnc(SCc2cc(=O)n3cc(Cl)ccc3n2)s1)c1cccc(F)c1 | inactive: 1.34%
O=C(c1ccc2c(Cl)c3c(nc2c1)CCCC3)N1CCN(c2ccccc2F)CC1 | inactive: -11.3%
COc1ccc(N2CC(NC(=O)c3c(F)cccc3Cl)CC2=O)cc1OC (stereo unspecified) | inactive: -9.74%
Cc1ccccc1NC(=O)c1cnc2sc(N3CCCC3)nn2c1=O | inactive: 10.8%
